From patent publication US20250044294A1, “COMPOSITION AND METHOD OF TREATING A CANCER THROUGH AFFECTING MEMBRANE RECEPTORS OF CANCER CELLS AND THEIR DERIVED EXTRACELLULAR VESICLES” (National Yang Ming Chiao Tung University, priority 2023, published 2025)
Read-outs that look alike come from different tables or passages of the source.

How the values were obtained:
[1] = tested on: EGFR downstream signaling pathways
[2] = target: EGFR-HER3 protein-protein interactions (Homo sapiens, UniProt P00533+P21860)
[3] = SAS and HSC3, post-treatment 15 μM 30 min after EGF 10 ng/ml 15 min

CN1CCN(CCCN2c3ccccc3Sc3ccc(Cl)cc32)CC1 [PCP, Prochlorperazine]
EGFR downstream protein expression levels ([1]; HSC3, SAS, FaDu, 5, 10, 15 μM 30 min, then EGF 10 ng/ml 15 min): suppressed EGFR downstream protein expression levels
PI3K/AKT downstream protein expression levels ([1]; HSC3, pre-treatment 15 μM 30 min, then EGF 10 ng/ml 15 min): effectively suppressed
AKT activation [1, 3]: did inhibit AKT activation
EGFR activation [1, 3]: did not impede EGFR activation
activation of EGFR downstream proteins ([1]; SAS and HSC3, pre-treatment 15 μM 30 min, then EGF 10 ng/ml 15 min): effectively inhibited
EGFR-HER3 protein-protein interactions ([2]; HSC3, PCP alone, pre-treatment and post-treatment): effectively inhibited
EGFR-HER3 protein-protein interactions ([2]; HSC3 and SAS, pre-treatment 15 μM 30 min, then EGF 10 ng/mL 15 min): could suppress EGFR-HER3 protein-protein interactions

CSc1ccc2c(c1)N(CCC1CCCCN1C)c1ccccc1S2 (stereo not drawn) [THD, Thioridazine]
extent of inhibition on AKT activation compared with PCP ([1]; HSC3): not as potent as that observed with PCP
expressions of p-EGFR/EGFR, p-AKT/AKT, and p-ERK/ERK ([1]; HSC3, 10, 15 μM 30 min, EGF 10 ng/mL): could suppress
